According to ChEMBL document CHEMBL4888484, “Replenishing the malaria drug discovery pipeline: Screening and hit evaluation of the MMV Hit Generation Library 1 (HGL1) against asexual blood stage Plasmodium falciparum ,using a nano luciferase reporter read-out” (2022):
The whole screen tested about 150,000 compounds, of which about 540 (0.36%) showed an effect of 50% or more. The list shows a part of the results.

Each molecule was assayed on Plasmodium falciparum (assay: Primary screen in NF54 nanoGlo assay, in single point, at 2uM, 72h; a lower Z score goes with more inhibition). Conditions: timepoint 72 hour.
Assay type: functional, Erythrocyte

Row | Structure (SMILES) | % Inhibition | Z score
1 | CC(=O)Nc1ccc(N2C(=O)c3cc(-c4ccco4)nn3C[C@@]2(C)C(=O)NCc2cccc(C)c2)cc1 | -16% | 2.55
2 | CCN(CCCNC(=O)NC1CCCC1)S(C)(=O)=O | -6% | 0.67
3 | O=C(Nc1cnn(CCN2CCCCC2)c1)[C@H](O)c1ccccc1 | -9% | 0.88
4 | Cc1ccc(CCNC(=O)NCC(=O)Nc2ccc(F)cc2)cn1 | -7% | 1.15
5 | C[C@@H](Cn1ccnc1)NC(=O)c1ccccc1-c1ccccc1 | -11% | 1.58
6 | Cc1nc(-c2c(C)noc2C)sc1C(=O)N1CC(C)[S+]([O-])C(C)C1 (stereo not given) | -1% | 0.1
7 | CCCCN(C)C(=O)c1nccnc1NC(=O)c1ccccc1 | -9% | 1.29
8 | O=C(c1csc(S(=O)(=O)N2CCCc3ccccc32)c1)N1CCOCC1 | 2% | -0.19
9 | Cc1noc(C)c1CC(C)NC(=O)NC(C)(CO)C1CCCCC1 (stereo not given) | -9% | 1.26
10 | Cc1cnc(NC(=O)c2cc(O)nc(CC(C)C)c2)[nH]1 | -1% | 0.11
11 | Cc1cnn(CC(=O)NCCN2CC=CCC2)c1 | -15% | 2.3
12 | O=C(NC[C@H]1Cn2ccnc2CO1)NC1CCCCC1 | -18% | 2.65
13 | O=C([C@@H]1CCCCN1C(=O)COc1ccc(Cl)cc1Br)N1CCCC1 | -7% | 0.71
14 | Cc1noc([C@H](C)ONC(=O)C2CCCC2)n1 | -5% | 0.64
15 | COc1ccc(CC(=O)Nc2nc(-c3ccc(OC)c(OC)c3)ns2)cc1 | -14% | 2.6
16 | CC1CN(C(=O)c2nccn3ccnc23)C1 | -7% | 0.91
17 | CN(CC(=O)NCc1cccs1)C(=O)CNC(=O)OCc1ccccc1 | -4% | 0.52
18 | COc1ccccc1C(C)(C)c1noc([C@@]2(C)CCNC(=O)C2)n1 | -3% | 0.4
19 | CCC(=O)Nc1cc(NC(=O)N(C)Cc2cnc(NC)nc2)ccc1OC | -13% | 1.81
20 | CCc1noc(CN(CC)CCn2c(=O)cc(C)[nH]c2=O)n1 | -12% | 1.11
21 | O=C1CC(c2ccccn2)=NN1C1CCC(F)(F)CC1 | -9% | 1.19
22 | Cc1ccc(-c2nc(-c3ccc(S(=O)(=O)N4CCC(C)CC4)cc3)no2)cc1F | -5% | 0.82
23 | CC[C@H](NC(=O)CCc1cnn(C)c1)c1ncnn1C | -10% | 2.08
24 | CCN1C(=O)N(CC)C(OC(C)=O)C1OC(C)=O (stereo not given) | -7% | 0.82
25 | CCCc1cc(-c2ccc(N(C)C)nc2)nc(C)n1 | -26% | 3.27
26 | Cn1cc(C(=O)N[C@H]2CCCc3ccccc32)cn1 | -4% | 0.47
27 | N#Cc1cccc(CN2C[C@@H]3CC[C@H]2CN(Cc2ccccn2)C3)c1 | -12% | 1.27
28 | Cc1n[nH]c(=O)nc1NCc1ccc(F)cc1 | 4% | -0.48

Row | Structure (SMILES) | % Inhibition | Z score
29 | CN(C)S(=O)(=O)N1CCOC[C@H]1c1nc(-c2ccccc2)no1 | 10% | -1.28
30 | COc1ccc([C@H]2OCC[C@@H]2NC(=O)Nc2nc(C)no2)cn1 | -9% | 1.2
31 | CCCCN1CCN(C(=O)CN2CCN(Cc3ccc(F)cc3Cl)C2=O)CC1 | 37% | -4.94
32 | c1ccc(Cc2nc(Cn3ccnc3-c3ccnc4ccccc34)no2)cc1 | -7% | 0.97
33 | COc1cccc(N2CCN(C(=O)[C@H]3CCCN(c4cnn(C)c(=O)c4)C3)CC2)c1 | 7% | -1.25
34 | Cc1sc(NC(=O)N[C@@H]2CCCNC2)nc1C(C)C | -3% | 0.6
35 | CCn1cc(CNCc2ccc(OC34CCCN(CC3)C4)cc2)cn1 (stereo not given) | -14% | 2.6
36 | C[C@H](NC(=O)c1ccncc1)c1cc2ccccc2o1 | -8% | 1.31
37 | Cc1ccc(C(=O)N2CCC(N3C(=O)N(Cc4cccnc4)C[C@]34CCOC4)CC2)s1 | -9% | 1.45
38 | CN(CCC(=O)Nc1ccccc1Cl)CCC1(O)CCCC1 | -5% | 0.86
39 | CC[C@](C)(NC(=O)CN1C(=O)c2ccccc2C1=O)C(=O)Nc1c(C)cccc1C | 2% | -0.35
40 | O=C(OCc1nc2ccccc2[nH]1)c1cccc(N2CCCC2=O)c1 | 4% | -0.58
41 | O=C(NCc1ccc(F)cc1)c1ccc2c(=O)n(-c3ccccc3)c(N3CCCC3)nc2c1 | 6% | -1.11
42 | COc1cnc(N2CCOC(c3ccccc3)C2)nc1N1CCOC(c2ccccc2)C1 (stereo not given) | -1% | 0.14
43 | CC1CC1CNC(=O)NCCc1nnc2ccccn12 (stereo not given) | -6% | 1
44 | CC(=O)N1CC(C(=O)Nc2ccc(Cl)cc2)C1 | 2% | -0.27
45 | O=C(C1CCCC1)N1CCN2C(=O)NC[C@H]2C1 | 2% | -0.25
46 | CCN(C[C@H]1CCCO1)C(=O)c1cc(COc2ccc3sc(C)nc3c2)on1 | -7% | 1.18
47 | COc1c(Cl)cc(Cl)cc1[C@H](c1nnnn1C(c1ccccc1)c1ccccc1)N1CCCCC1 | -33% | 3.9
48 | O=S(=O)(C1CCCCC1)N1CCN(c2ccc(C3CC3)nn2)CC1 | -2% | 0.41
49 | O=C(Nc1ccccc1)N1CCC(N2C[C@H](OCC3CC3)C23CCOCC3)CC1 | -3% | 0.65
50 | Cc1cccc(C[C@H](C)Nc2nnc(C(C)C)s2)n1 | -18% | 3.25
51 | CS(=O)(=O)N1C[C@H]2CCN(C(=O)CCc3c[nH]c4ccccc34)C[C@@]2(CO)C1 | 4% | -0.53
52 | O=C(Nc1cnc2ccccc2c1O)NC1CCCC1 | -7% | 1.3
53 | CCCCOc1c(Br)cc(CNC)cc1OCC | 5% | -0.78
54 | CCNc1nc(C)cc(NCCNC(=O)c2snnc2C)n1 | -3% | 0.42
55 | Cn1cc(CC(=O)NC[C@@]2(C)CCCN2Cc2ccccc2)cn1 | -4% | 0.37
